Article PMC5388433
Substitutions are numbered along the chain they refer to. No constants are given. Whether binding was seen depends on the method and setting. For part of these data: Binding seen in cells or lysates may run through a third protein. Some binding calls cover weakened binding; strength is not graded here. For part of these data: Tags and fused reporters may be left off the sequences shown.

Chains of the proteins cited; added tags and fusions are not shown.
UniProt P45973: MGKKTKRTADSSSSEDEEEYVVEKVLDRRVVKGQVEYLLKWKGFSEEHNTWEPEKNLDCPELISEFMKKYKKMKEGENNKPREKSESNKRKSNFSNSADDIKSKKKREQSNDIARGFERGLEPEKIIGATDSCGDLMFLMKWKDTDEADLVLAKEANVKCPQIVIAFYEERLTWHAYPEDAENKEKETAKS

Key:
[1] = molecular target: T1, KDM2A_(543-811) nucleosome recognition module (human) (UniProt Q9Y2K7); test: pull-down; nucleosomes (2.5 μg octamer, biotinylated 601-DNA) immobilised on streptavidin beads, incubated with 2.5 μg WT or mutant HP1α and/or 2.5 μg KDM2A_(543-811) (WT or V801A/L803A) in 1 ml binding buffer; immunoblot; both purified
T1 sequence: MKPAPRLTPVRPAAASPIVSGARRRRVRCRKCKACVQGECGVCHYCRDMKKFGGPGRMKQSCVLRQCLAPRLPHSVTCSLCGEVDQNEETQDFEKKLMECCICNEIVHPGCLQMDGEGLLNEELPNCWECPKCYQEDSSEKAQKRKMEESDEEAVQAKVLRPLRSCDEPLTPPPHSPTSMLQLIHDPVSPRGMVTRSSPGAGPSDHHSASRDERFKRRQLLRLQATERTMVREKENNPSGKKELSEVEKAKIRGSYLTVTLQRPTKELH

[2] = molecular target: T2, purified full length FLAG-GFP-tagged KDM2A V801A/L803A (human) (UniProt Q9Y2K7); test: pull-down; nucleosomes (2.5 μg octamer, unmethylated biotinylated 601-DNA) immobilised on streptavidin beads, incubated with 2 μg purified full length FLAG-GFP-KDM2A (WT or mutant) and 2 μg HP1α in 1 ml binding buffer (20 mM HEPES pH7.9, 150 mM NaCl, 0.1% NP40); immunoblot; both purified
T2 sequence: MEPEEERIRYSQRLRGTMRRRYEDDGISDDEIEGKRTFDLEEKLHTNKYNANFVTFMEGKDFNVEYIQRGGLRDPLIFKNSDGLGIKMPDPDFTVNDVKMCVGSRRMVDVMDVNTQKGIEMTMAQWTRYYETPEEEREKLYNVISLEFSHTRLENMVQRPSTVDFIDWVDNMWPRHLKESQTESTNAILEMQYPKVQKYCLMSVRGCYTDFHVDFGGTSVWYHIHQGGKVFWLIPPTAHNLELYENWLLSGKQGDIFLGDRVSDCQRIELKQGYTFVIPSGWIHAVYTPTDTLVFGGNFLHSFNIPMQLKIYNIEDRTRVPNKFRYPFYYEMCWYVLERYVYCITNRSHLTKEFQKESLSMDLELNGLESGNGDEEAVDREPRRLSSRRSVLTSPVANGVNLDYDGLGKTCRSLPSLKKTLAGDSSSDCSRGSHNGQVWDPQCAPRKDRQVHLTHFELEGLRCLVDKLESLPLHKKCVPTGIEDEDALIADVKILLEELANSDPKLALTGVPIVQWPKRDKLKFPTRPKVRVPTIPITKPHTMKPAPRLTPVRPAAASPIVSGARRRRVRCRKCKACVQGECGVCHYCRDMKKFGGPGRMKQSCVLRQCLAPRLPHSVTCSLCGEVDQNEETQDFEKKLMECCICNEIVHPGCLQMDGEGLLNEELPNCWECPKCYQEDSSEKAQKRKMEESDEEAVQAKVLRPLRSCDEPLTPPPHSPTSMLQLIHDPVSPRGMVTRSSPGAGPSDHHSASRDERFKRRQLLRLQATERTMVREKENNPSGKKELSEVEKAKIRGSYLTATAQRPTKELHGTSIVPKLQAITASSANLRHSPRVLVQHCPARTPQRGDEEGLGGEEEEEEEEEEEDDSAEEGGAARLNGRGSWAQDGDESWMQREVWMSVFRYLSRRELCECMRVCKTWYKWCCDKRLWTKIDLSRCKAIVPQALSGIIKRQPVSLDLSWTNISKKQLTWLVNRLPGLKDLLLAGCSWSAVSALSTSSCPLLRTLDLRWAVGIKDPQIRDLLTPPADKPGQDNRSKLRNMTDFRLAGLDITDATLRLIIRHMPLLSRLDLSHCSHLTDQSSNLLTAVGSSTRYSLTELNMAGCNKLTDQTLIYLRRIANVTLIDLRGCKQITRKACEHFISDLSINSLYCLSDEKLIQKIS

[3] = molecular target: T3, FLAG-GFP-tagged KDM2A WT (293T) (human) (UniProt Q9Y2K7); test: pull-down; FLAG-GFP-KDM2A variants captured from 293T whole cell extracts on anti-FLAG M2 agarose beads, washed, then rotated with recombinant purified HP1α in 200 μl binding buffer (20 mM HEPES pH 7.9, 150 mM NaCl, 0.1% NP40) for 2 h at 4°C; quantitative immunoblot; only the binder purified
T3 sequence: T2 sequence with A801V, A803L

Q: Which results are given for “recombinant purified HP1α (WT) (from UniProt P45973 1-191)”?
A: binding [1]: binds; binding [2]: no binding; binding [3]: binds
